Source: PubChem BioAssay AID493208 (National Center for Advancing Translational Sciences (NCATS), 2011)
The whole screen tested about 44,000 compounds, of which about 340 (0.77%) were called active. Roughly 5% stayed inconclusive and do not appear here. Calls come from the whole dose curve; as a rule, active = well fitted inhibition curve with a large enough effect; inconclusive = small, poorly fitted or top-dose-only effect; inactive = flat fitted curve, though single readings scatter. This is one part of the list.

Assay: Acumen qHTS Assay for Inhibitors of the mTORC1 Signaling Pathway in MEF (Tsc2-/-, p53-/-) Cells: Sytravon; note: nearly all actives have a fitted effect of over 50% in size;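 for activity change, negative = inhibition: plate controls were DMSO for no effect and rapamycin for full effect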
Conditions: phospho-rpS6 immunofluorescence/PI, 24 h; series mostly up to 38.3 µM; activity change, negative = inhibition: at the top concentration
Procedure, shortened: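 Read-out: phospho-S6 Alexa-488 intensity over PI intensity per well, scored as % active cells using thresholds from rapamycin (7.5 nM) and DMSO controls. Tsc2-/-, p53-/- MEFs exposed to compound for 24 h; PI cell count recorded as viability.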
Potency is the fitted concentration of half-maximal effect.

Compound | activity change, negative = inhibition | Potency
CCCNC(=O)CN1CCN(c2ncc(NC(=O)c3ccc(Cl)cc3)cc2C(=O)O)CC1 | inactive: 0.554% | 
CCCOc1ccccc1C1Oc2nc(SC)nnc2-c2ccccc2N1C(C)=O (stereo not given) | inactive: -4.38% | 
COCCNC(=O)Cn1ncc2c(C)n(Cc3ccc(C)cc3)c(C)c2c1=O | inactive: 3.16% | 
CCOc1ccc(C(=O)c2cn(Cc3ccc(F)cc3)c3ccc(F)cc3c2=O)cc1 | inactive: -6.69% | 
Cc1ccc(C)c(CNC(=O)c2cnc3sc(N4CCCC4)nn3c2=O)c1 | inactive: 1.22% | 
Cc1ccc(CN(Cc2ccco2)C(=O)c2oc3ccc(C)cc3c2C)cc1 | inactive: -7.47% | 
Cc1cccc(-n2ncc3c(N4CCCCCC4)ncnc32)c1 | inactive: 1.17% | 
CC(C)(C)C(=O)OC1=CN(Cc2ccccc2)S(=O)(=O)c2ccccc21 | inactive: -23.7% | 
CSc1ccc(C2c3c(oc4ccccc4c3=O)C(=O)N2CCCN2CCOCC2)cc1 (stereo not given) | inactive: -1.9% | 
CCc1ccc(NC(=O)CSc2nc3ncccc3[nH]2)cc1 | inactive: -9.15% | 
COc1cccc(NC(=O)c2c(C(=O)Nc3ccccc3)sc3nc(C)cc(=O)n23)c1 | inactive: 0.214% | 
CCOc1ccc(/C=C/C(=O)Nc2sc3c(c2C(=O)OC)CCC3)cc1 | inactive: 4.43% | 
CCC(Cc1ccccc1)NC(=O)c1csc2c1CCCCC2 (stereo not given) | inactive: -10.4% | 
COc1cccc(Cn2c(SCc3ccc(C(=O)N4CCC(C)CC4)cc3)nc3ccncc32)c1 | inactive: 0.526% | 
COc1ccc2c(C)cc(SCC(=O)Nc3nsc(-c4ccc(C(C)(C)C)cc4)n3)nc2c1 | inactive: 1.41% | 
CC(C)(C)OC(=O)N1CCC(c2c(C(=O)NCCN3CCOCC3)cnn2-c2ccccc2)CC1 | inactive: -9.55% | 
COc1ccc2oc(-c3ccc(C)c(NC(=O)c4ccc(N5CCCCC5)c([N+](=O)[O-])c4)c3)nc2c1 | inactive: -4.55% | 
COc1ccc(CNC(=O)CN2CCSc3ccccc32)c(OC)c1 | inactive: -4.37% | 
CCN(CC)C(=O)Cn1c(SCC(=O)Nc2ccc(C)c(C)c2)nc2ccccc21 | inactive: 0% | 
CCOC(=O)c1c(Nc2ccccc2)nnc(-c2ccccc2)c1-c1ccccc1 | inactive: -17.6% | 
O=C(Cn1c(=O)oc2ccccc21)NCc1ccc(Cl)cc1 | inactive: -8.74% | 
CCN(c1ccccc1)S(=O)(=O)c1cc(C(=O)Nc2ccc(Br)cc2)ccc1F |  | active: 14.7 µM
Cc1ccc(-n2ncc3c(NCCc4ccccc4)ncnc32)cc1 | inactive: 13.7% | 
CCOc1ccc(S(=O)(=O)n2nc(C)c(S(=O)(=O)N3CCCCCC3)c2C)cc1 | inactive: 7.59% | 

Compound | activity change, negative = inhibition | Potency
Cc1cc2oc(C(=O)N(Cc3ccccc3)C3CCS(=O)(=O)C3)cc(=O)c2cc1C (stereo not given) | inactive: -5.91% | 
CN1CCN(c2ncc3c(n2)CCN(Cc2ccccc2Cl)C3)CC1 | inactive: 25% | 
CCc1ccc(-n2c(=O)c3cccnc3n2CC(=O)N(CC)c2cccc(C)c2)cc1 | inactive: -26.2% | 
COc1cccc(C(=O)Nc2ccc3c(c2)CCCN3C(=O)c2cccs2)c1OC | inactive: 0% | 
Cc1ccc(NC(=O)CN2C(=O)C(c3ccccc3)=NC2(C)C)cc1C | inactive: -6.18% | 
Cc1cc(-c2nc3ncccc3o2)ccc1NC(=O)COc1ccc(C(C)(C)C)cc1 | inactive: -4.48% | 
CCc1ccc(NC(=O)CSc2nnc(-c3nonc3NC(C)=O)n2-c2ccccc2)cc1 | inactive: 3.41% | 
Cc1c2cnn(-c3ccccc3)c(=O)c2c(C)n1CC(=O)NCc1ccc(Cl)cc1 | inactive: -4.35% | 
CCOc1ccc(Nc2c(S(=O)(=O)c3ccc(C)cc3)cnc3ccccc23)cc1 | inactive: -13.9% | 
CC1=C(C(N)=O)C(c2ccc(C(C)C)cc2)n2nc(SCc3ccccc3F)nc2N1 (stereo not given) | inactive: 7.92% | 
CCn1cc2nc(SCc3cccc(C(F)(F)F)c3)n(CCc3ccccc3)c(=O)c2n1 | inactive: 0% | 
CCOc1ccc(NC(=O)Cn2cnc3nc4c(cc3c2=O)CCCC4)cc1 | inactive: 1.63% | 
COc1ccc(CCNC(=O)Cn2c(C)c3cnn(-c4ccccc4)c(=O)c3c2C)cc1OC | inactive: -2.07% | 
COc1ccc(-c2cc(C)no2)cc1S(=O)(=O)Nc1cccc(C(F)(F)F)c1 | inactive: 5.35% | 
Cc1c(CCNC(=O)c2ccc(C(F)(F)F)cc2)sc2nc(-c3ccc(F)cc3)nn12 | inactive: 0.738% | 
COc1ccc(-c2[nH]c(-c3ccc(F)cc3)nc2SCC(=O)Nc2ccc(OC)c(OC)c2)cc1 | inactive: 3.53% | 
Fc1ccc(-n2ncc3c(Nc4ccc(Oc5ccc(Cl)cc5)cc4)ncnc32)cc1 | inactive: 9.36% | 
Cc1ccc(N2CC(c3nnc(Cc4ccc(F)cc4Cl)o3)CC2=O)cc1 (stereo not given) | inactive: -15.3% | 
CCCCNC(=O)c1ccc(-c2nc(CS(=O)(=O)c3ccc(C)cc3)c(C)o2)cc1 | inactive: -6.45% | 
CC1=C(c2ccc(Cl)cc2)S(=O)(=O)N=C1N1CCN(c2cccc(C)c2)C(C)C1 (stereo not given) | inactive: 0.496% | 
COC(=O)CNC(c1ccccc1)c1cc(Br)ccc1NC(=O)c1cc(OC)c(OC)c(OC)c1 (stereo not given) | inactive: 0.572% | 
Cc1ccc(-c2csc(=Nc3ccccc3)n2CCCO)cc1 | inactive: -2.04% | 
CCOC(=O)c1ccc(NC(=O)Cn2nnc(-c3ccc(C(F)(F)F)cc3)n2)cc1 | inactive: 9.63% | 
CNC(=O)c1ccc(NC(=O)c2nsc3ccccc23)cc1 | inactive: 1.53% | 

Compound | activity change, negative = inhibition | Potency
CCOC(=O)c1ccc(OCC2c3cc(OC)c(OC)cc3CCN2C(=O)Cc2ccc(OC)c(OC)c2)cc1 (stereo not given) | inactive: 13.2% | 
COc1ccc2c(c1)c(N1CCCC1=O)c(C(=O)Nc1ccc(Cl)cc1C)n2C | inactive: -1.43% | 
CCN1Cc2cccc(C(=O)Nc3ccc(F)cc3)c2C1=O | inactive: -4.71% | 
COC(=O)c1ccc(OC)c(Cn2c(=O)n(-c3cccc(Cl)c3)c(=O)c3c2c2cc(C)ccc2n3C)c1 | inactive: -22.1% | 
CCOC(=O)c1c(-c2ccc(C)cc2)csc1NC(=O)c1ccc(C(C)(C)C)cc1 | inactive: -7.41% | 
CCc1ccc(NC(=O)CCS(=O)(=O)c2ccc3c(c2)oc(=O)n3C)cc1 | inactive: 6.13% | 
Cc1ccc(C)c(CN2C(=O)c3ccccc3Sc3ccc(C(=O)NC4CCCC4)cc32)c1 | inactive: 0% | 
Cc1ccc(-n2ncc(C(=O)N3CCc4ccccc4C3)c2C2CCN(C(=O)OC(C)(C)C)CC2)cc1C | inactive: -13.4% | 
Cc1ccc(N2CCN(C(=O)CCc3c(C)nc4ncnn4c3C)CC2)c(C)c1 | inactive: -12.8% | 
Cc1cc(C)c(C#N)c(SCC(=O)Nc2ccccc2C#N)n1 | inactive: 2.65% | 
COc1ccccc1-c1noc(-c2ccc(NCCc3ccccc3)c([N+](=O)[O-])c2)n1 | inactive: -0.582% | 
COc1cccc(CNC(=O)CSc2ncc(S(=O)(=O)c3ccc(C)c(Cl)c3)c(=O)[nH]2)c1 | inactive: -2.69% | 
CCn1cc(C(=O)NCCc2ccc(OC)c(OC)c2)c(=O)c2cc(S(=O)(=O)N3CCc4ccccc4C3)ccc21 | inactive: 0.381% | 
COc1ccc(-c2nc(CN3CCC(C(=O)NCCN(CC(C)C)CC(C)C)CC3)c(C)o2)cc1OC | inactive: -7.59% | 
CC(C)(C)C(=O)OCc1cc(=O)n2nc(C3CCCCC3)sc2n1 | inactive: 8.45% | 
COC(=O)c1ccccc1NC(=O)CN1C(=O)COc2ccccc21 | inactive: 0.566% | 
Cc1ncc(CO)c2c1Oc1nc(-c3ccccc3F)nc(SCC(=O)N3CCCCC3)c1C2 | inactive: -3.27% | 
COc1ccc(NC(=O)CSc2nc3c(c(=O)[nH]2)CN(Cc2ccccc2)CC3)cc1Cl | inactive: 3.71% | 
CCc1ccc(NC(=O)Cn2c(=O)n(Cc3ccccc3)c(=O)c3oc4ccccc4c32)cc1 | inactive: 2.26% | 
COc1cccc2cc(-c3nc(Cl)c4c5c(sc4n3)CC(C)CC5)c(=O)oc12 (stereo not given) | inactive: 2.78% | 
Cc1ccc(S(=O)(=O)c2cn(C)c3cc(N4CCCC4)c(F)cc3c2=O)c(C)c1 | inactive: -4.76% | 
CCc1ccc(NC(=O)c2cnn(-c3c(C)cccc3C)c2C2CCNCC2)cc1 | inactive: 0% | 
CCOc1cc(C(=O)Nc2c(NC)c3ccccc3oc2=O)cc(OCC)c1OCC | inactive: 0.595% | 
O=C1CN(C(=O)c2ccccc2)C(c2ccc(F)cc2)c2cc(Br)ccc2N1 (stereo not given) | inactive: -18.2% | 

Compound | activity change, negative = inhibition | Potency
CCc1cccc(C)c1NC(=O)Nc1csc2c1CCCC2 | inactive: -0.391% | 
Cc1ccc(C)c(NC(=O)CSc2nncn3c2cc2sccc23)c1 | inactive: -0.142% | 
COc1ccc2sc(N(Cc3cccnc3)C(=O)c3ccco3)nc2c1 | inactive: -5.88% | 
CCOCCCNC(=O)c1c(NC(=O)c2cc(=O)c3cc(C)c(C)cc3o2)sc2c1CCC2 | inactive: -20.3% | 
CCn1c(=O)cc(OCC(=O)NCc2ccc(F)cc2Cl)c2ccccc21 | inactive: -0.449% | 
COc1ccc(CN2C(=O)N(c3ccc(F)cc3)C(=O)C2CC(=O)Nc2ccccc2)cc1 (stereo not given) | inactive: 0.431% | 
CCOc1ccc(N2CC(c3nc4ccccc4n3CCC3CCCCC3)CC2=O)cc1 (stereo not given) | inactive: 8.03% | 
CCCNC(=O)C1CCN(c2cc(C)nc3c(-c4ccc(OC)c(OC)c4)c(C)nn23)CC1 | inactive: -0.873% | 
Cc1ccc(CCNc2nc3ccccc3c3nc(-c4ccccc4)nn23)cc1 | inactive: -1.95% | 
Cc1oc(-c2ccc(Cl)cc2)nc1CSc1nnc(C)n2c1cc1sccc12 | inactive: -6.44% | 
O=C(NCCc1c[nH]c2ccccc12)Nc1ccccc1C(F)(F)F | inactive: -4.71% | 
COC(=O)c1cc(NC(=O)Cn2ncc3c2-c2ccccc2OC3)cc(C(=O)OC)c1 | inactive: -8.09% | 
COc1ccc(-c2noc(-c3ccc(NC4CCCCC4)c([N+](=O)[O-])c3)n2)cc1OC | inactive: 0.387% | 
Cc1cccc(CS(=O)(=O)CC2Nc3ccc(C(=O)NCc4ccccc4Cl)cc3NC2=O)c1 (stereo not given) | inactive: 0.472% | 
Cc1ccc(-n2c(=O)c3c(C)c(C)sc3n(CC(=O)c3ccc(Cl)cc3)c2=O)cc1C | inactive: -0.946% | 
CCCn1c2ccccc2c2cnn(CC(=O)N(CCCOC(C)C)Cc3ccco3)c(=O)c21 | inactive: -0.025% | 
COc1cc(Nc2ncnc3onc(-c4ccc(Cl)cc4)c23)cc(OC)c1 | inactive: -9.15% | 
COc1cc(C(=O)Nc2ccc(OCc3cc(=O)n4ccc(C)cc4n3)cc2)cc(OC)c1OC | inactive: -6.3% | 
N#Cc1ccccc1CSc1nnc(-c2ccccc2)o1 | inactive: 1.05% | 
Cc1ccn2c(Nc3ccc4c(c3)OCO4)c(-c3ccco3)nc2c1 | inactive: 3.79% | 
O=C(Cn1c(=O)n(Cc2ccc(F)cc2)c(=O)c2sc3ccccc3c21)NCc1ccccc1Cl | inactive: 0.459% | 
COc1ccc(N2CCN(C(CNS(=O)(=O)c3c(C)cc(C)cc3C)c3ccco3)CC2)cc1 (stereo not given) | inactive: -5.6% | 
Cc1cccc(N2CCN(S(=O)(=O)c3c(C)[nH]c(=O)[nH]c3=O)CC2)c1C | inactive: -2.36% | 
